The RNAGym collection of RNA variant scans (doi:10.7554/elife.90254)
Read counts are not given, so values of variants with three or more changes are uncertain.

B1: LINE1-full (parent)
chain: UACGUAGGUGGUUUUCCCCUGAUAGUGCUAAGGGGGCCUGGAAGUUUGGACUGGGCAGAGCUCAACACAGCGUGGCAAAGUGGCUGUGGCUAGACUGCCUCUCUGGAUUCCUCGUCACUCAGCAGGGCAUCUCUGAGAGAAAUGCC

Variants of: B1
Assay: self-cleavage, relative activity (ratio to wild type); higher = more cleavage; in vitro, sequencing; the parent is a self-cleaving ribozyme

Variant | self-cleavage
G21A U39C A64G G88U U96C A121U A136G | 0.05
G21A U46C U143C | 0.95
G21A U73A U115C A140G | 1.3
G21A U81G U119A | 1.3
G21A U108C G135A | 0.54
G21U A22G A64U | 0.23
G21U A22G U23C A50U A77G | 1
G21U C66U U112C | 0.03
G21U U26A G41A A43U U102C A141G | 0.84
G21U U52C A57G G139U | 0.89
G21U U73G U100A G114U U119A | 0.86
A22C A94U U119A | 0.46
A22C C99U U108G | 1.75
A22C U29A U62C | 0.05
A22C U39A U102C | 0.56
A22C U46C A142G U143C | 0.99
A22G A24U A69G | 0.92
A22G A30G U39C | 0.92
A22G A30U U47C A79U C84U | 0.1
A22G A31G A50U | 1.16
A22G A31U A57U U91C C145U | 0.13

Variant | self-cleavage
A22G A31U A64G | 0.31
A22G A31U C38U | 0.84
A22G A31U G82A | 0.51
A22G A42G A77G | 2.09
A22G A42G C98G | 0.38
A22G A42G U45C A129G | 1.02
A22G A42G U62C C128A | 0.1
A22G A42U U115C | 1.13
A22G A43G A77G | 1.56
A22G A43G G74A U96C A136G | 0.07
A22G A43G U132A | 0.93
A22G A50G A124G | 0.71
A22G A50G U100A A142C | 0.42
A22G A50U C101A U132C | 1.36
A22G A57C A79C | 0
A22G A57C C128U | 0.12
A22G A57G A129U U134G | 1.84
A22G A57G A138G A140G | 0.31
A22G A57G C98A U115A A136G | 0.12
A22G A57G C123U | 0.69
A22G A57G U62C | 0.37

Variant | self-cleavage
A22G A57G U91C G144A | 0.56
A22G A57G U132C | 1.6
A22G A57U A129U U134C | 0.2
A22G A57U C118A | 0.1
A22G A59G A64U | 0.25
A22G A59G A77G A142G | 0.26
A22G A59G A107G A140G | 1.02
A22G A64U U73A C76U U85A A142G | 0.05
A22G A64U U87C U100C | 0
A22G A64U U119C | 0.55
A22G A65G A124G | 0.38
A22G A65G G137A | 0
A22G A65G U143C | 0
A22G A65U U102A U104A U112C | 0.2
A22G A67C G88A A94C | 0
A22G A67U A92G U96A U100C | 0
A22G A69G C101A C128U U143C | 0.19
A22G A69G U73A C120U | 1.18
A22G A69G U81A | 0.45
A22G A69U A136G A142G | 0.08
A22G A69U U96A U132C | 0.03

Variant | self-cleavage
A22G A77G A124U | 2.41
A22G A77G A129G A136G | 2.3
A22G A77U U81C U132C | 1.93
A22G A77U U132C | 1.62
A22G A78G A141G | 0.57
A22G A78G U96A | 0.18
A22G A78G U134A A141G | 0.88
A22G A79G U134C | 1.16
A22G A94C U96C | 0
A22G A94U U108A U115A | 0.08
A22G A107G A138U | 1.11
A22G A121G A140G | 1.58
A22G A136G A140G | 2.25
A22G C56U A79G A138G | 0.3
A22G C61U A78G U143C | 0.1
A22G C71U C123A | 1.13
A22G C71U U73A | 0.15
A22G C84G U85C G89A U130C U134A | 0.16
A22G C116A A138G | 1.21
A22G C116A G122C A124U | 0.24
